In all, about 120,000 compounds went through this assay and about 5,300 (4.4%) were called active. The inconclusive results got no clear call from the source; some entries with a clear call stand among them for comparison. The call rests on the fitted dose curve; in most records, active means well fitted inhibition curve with a large enough effect; inconclusive means small, poorly fitted or top-dose-only effect; inactive means no such curve, though single readings can be large or run the other way. Potencies of inconclusive entries are doubtful fits and often do not repeat.
Assay: qHTS Primary assay for Inhibitors of Plasmodium falciparum Dd2 growth in vitro; further: nearly all actives have a fitted effect of over 65% in size;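 on activity, negative = inhibition: plate controls were DMSO vehicle for no effect and reference drug for full effect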
Conditions: P. falciparum Dd2 growth, SYBR Green, 72 h; activity, negative = inhibition: at 28.9 µM (top of the series) unless noted; series mostly up to 28.9 µM
Summary of the method: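 Readout: SYBR Green fluorescence, 485 nm excitation, 535 nm emission, after ~16 h lysis at 37C. Before that, Dd2-infected red cells (2.5% hematocrit) grew 72 h with compound, 29 uM top final concentration.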
Potency means the concentration at half of the fitted maximal effect; tags describe the fitted curve by direction and shape.

| Structure (SMILES) | Potency | activity, negative = inhibition |
| --- | --- | --- |
| COc1ccc(C(=O)N2CCCC(c3nc(-c4ccccc4)no3)CCNC(=O)CC2)cc1F (stereo not drawn) | inconclusive: 2.51 µM [inhibitor, full curve, poor fit] |  |
| COc1ccc(-n2cc(CN3CCCC(CO)C3)c(-c3cccc(F)c3)n2)cc1 (stereo not drawn) | active: 12.6 µM |  |
| Cc1ccc(CNC(=O)c2nc(-c3ccc(Cl)cc3)n3c2CCCCC3)cc1 | inconclusive: 11.2 µM [inhibitor, single point] |  |
| Cc1ccc(NC2=N[C@H]3[C@@H](O)[C@H](O)C[C@H](C(=O)N(C)Cc4ccccc4)[C@H]3S2)cc1 | inactive |  |
| O=C(Cc1ccc(F)cc1)N1CCC(c2nc3c(nnn3Cc3ccc(F)cc3)c(=O)[nH]2)CC1 | inconclusive: 10 µM [inhibitor, single point] |  |
| Cc1cccc(CN2C[C@@H](F)[C@@H](OCc3nc4ccccc4n3C)C2)n1 | inactive |  |
| CCN(CC)C(=O)c1sc2c(c1C)c(=O)n(-c1ccc(C)c(C)c1)c(=O)n2Cc1cc(=O)n2c(C)cccc2n1 | inactive |  |
| C#CCN(C)C[C@H]1CN2CC[C@H]1C[C@@H]2CNS(=O)(=O)c1ccc(C)cc1 | inconclusive: 5.62 µM [inhibitor, single point] |  |
| COc1ccc([C@@H]2CN(c3nnnn3-c3ccccc3)C[C@H]2NC(C)=O)cc1 | inconclusive: 7.08 µM [inhibitor, partial curve, poor fit] |  |
| Fc1ccccc1-c1noc(-c2nc(Cc3ccccc3)no2)n1 | inconclusive: 3.98 µM [inhibitor, partial curve, poor fit] |  |
| Cc1c(C(=O)OCC2CCCCC2)[nH]c2c1C(=O)CC(c1ccc(Cl)cc1)C2 (stereo not drawn) | inactive |  |
| O=C(NC1CC1)c1nc(-c2cc(Cl)cc(Cl)c2)c2ccccn12 | inconclusive: 25.1 µM [inhibitor, single point] |  |
| Cc1ccccc1N1CCCN(Cc2cccc(CCN)c2)CC1 | active: 8.91 µM |  |
| COCCN1Cc2ccc(Nc3ccc(OC)cc3)nc2C(C)(C(=O)NC(C)C)C1 (stereo not drawn) | active: 12.6 µM |  |
| Cc1ccc(S(=O)(=O)N2CCc3cc(C(=O)Nc4ccc(C)c(C)c4)ccc32)cc1 | inconclusive: 17.8 µM [inhibitor, single point] |  |
| O=c1cc(-c2ccccc2)nc2cc(-c3ccc(F)cc3)[nH]n12 | inconclusive: 17.8 µM [inhibitor, single point] |  |
| Cc1ccc(Cn2cc(/C=C(/C#N)C(=O)Nc3cccc(Cl)c3)c3ccccc32)cc1 | inconclusive: 6.31 µM [inhibitor, partial curve, poor fit] |  |
| CCCCc1ccc(NC(=O)Cn2cccc2-c2nc(-c3ccc4c(c3)OCO4)no2)cc1 | inactive |  |
| O=C(C1CCC1)N1CCn2c(nnc2[C@@H]2C[C@@H](O)CN2Cc2ccccc2)C1 | inactive |  |
| COc1ccccc1NC(=O)Cn1c(=O)n(CCc2ccccc2)c(=O)c2c3c(sc21)CN(C(C)=O)CC3 | inconclusive: 10 µM [inhibitor, single point] |  |
| CN1c2cc(C(=O)Nc3cccc(Br)c3)ccc2C(=O)N2CCCCCC21 (stereo not drawn) | inconclusive: 8.91 µM [inhibitor, partial curve, poor fit] |  |

| Structure (SMILES) | Potency | activity, negative = inhibition |
| --- | --- | --- |
| CCOc1ccc2c(C)c(C(=O)N3CC[C@](C)(O)[C@H](C)C3)oc2c1OCC | inactive |  |
| CCn1c(CO)nnc1C1CC(NC(=O)c2cnc3sccn3c2=O)C1 (stereo not drawn) | inconclusive: 1.58 µM [inhibitor, full curve, poor fit] |  |
| CN(C)c1ccc(Nc2ncncc2-c2nc(-c3ccccc3)no2)cc1 | inconclusive: 0.0891 µM [inhibitor, full curve, poor fit] |  |
| COc1ccc(CNC(=O)CSc2ncc3c(n2)-c2cc(Cl)ccc2N(Cc2ccccc2)S3(=O)=O)cc1OC | inconclusive: 17.8 µM [inhibitor, single point] |  |
| COc1ccc(CC(=O)N2CC3(CCN(C)CC3)c3cc(OC)c(OCc4ccccc4)cc32)cc1 | inconclusive: 1.26 µM [inhibitor, partial curve, poor fit] |  |
| CCNC(=O)c1cccnc1OC1CCN(C(=O)C2CCOCC2)C1 (stereo not drawn) | inactive |  |
| C=CCn1cc2c3c(cccc31)[C@H](CC(C)C)N[C@H](C(=O)NCc1ccccn1)C2 | active: 11.2 µM |  |
| Oc1ccc(-c2nc(C3CC3)nc3c2CCN(Cc2ccc(C(F)(F)F)cc2)CC3)cc1 | inconclusive: 1.41 µM [inhibitor, partial curve, poor fit] |  |
| COCCNc1ccc(-c2noc([C@@H]3CCCN3Cc3ccncc3)n2)cn1 | inconclusive: 31.6 µM [inhibitor, single point] |  |
| COc1ccc(CN2CCC3(CC2)COc2ccccc2CN3)cc1 | inconclusive: 17.8 µM [inhibitor, single point] |  |
| Cc1ccc(C(=O)NC2CCN(c3cnn(CC4CC4)c(=O)c3)CC2)s1 | inconclusive: 6.31 µM [inhibitor, partial curve, poor fit] |  |
| NC(=O)[C@@H](Cc1ccccc1)NC(=O)C1=C[C@@H](NS(=O)(=O)c2cccc(C(F)(F)F)c2)[C@@H](O)[C@H](O)C1 | inconclusive: 7.94 µM [inhibitor, partial curve] |  |
| O=C(NCCc1ccccc1)N1CCC(c2noc(-c3cnccn3)n2)C1 (stereo not drawn) | inconclusive: 1.41 µM [inhibitor, partial curve, poor fit] |  |
| Cc1ccccc1Cc1c(C)nc2c(C(=O)N3CCC(Cc4nncn4CC4CC4)CC3)cnn2c1C | inconclusive: 3.55 µM [inhibitor, partial curve, poor fit] |  |
| O=C(Nc1ccccc1C(F)(F)F)N1CCCC1c1nncn1-c1ccccc1 (stereo not drawn) | inactive |  |
| CN(Cc1ccco1)C(=O)c1ccc(-c2ccc(N3CCCCCC3)nc2)cc1 | inactive |  |
| Cc1ccccc1C(=O)N1CCCCC12Cc1ccccc1NC2=O (stereo not drawn) | inconclusive: 0.282 µM [inhibitor, full curve, poor fit] |  |
| O=[S+]([O-])(c1cccs1)N1CCC2(CC(c3cccc(C(F)(F)F)c3)=NO2)C1 (stereo not drawn) | inconclusive: 10 µM [inhibitor, single point] |  |
| COCC(=O)NCCC1CCN(C(=O)Nc2ccc(F)cc2)CC1 | inactive |  |
| O=C1CCC2(C(=O)NCCN3CCCCC3)CCCC=C2N1C1CCCC1 (stereo not drawn) | inconclusive: 1.41 µM [inhibitor, full curve, poor fit] |  |
| COc1ccc(-c2noc(Nc3cc(C)ccc3OC)n2)cc1 | inconclusive: 17.8 µM [inhibitor, single point] |  |

| Structure (SMILES) | Potency | activity, negative = inhibition |
| --- | --- | --- |
| CC(C)N1CCC2(CC1)CNCc1ccccc1O2 | inactive |  |
| CC(C)(C)c1ccc(C2NC(=O)c3n[nH]c(-c4cccs4)c32)cc1 (stereo not drawn) | inconclusive: 6.31 µM [inhibitor, partial curve, poor fit] |  |
| CN1CCCN(C(=O)c2nc3sccn3c2CN2C[C@]3(C)C[C@H]2CC(C)(C)C3)CC1 | inconclusive: 11.2 µM [inhibitor, single point] |  |
| CN1CC(=O)N(c2ccccc2F)Cc2c1ncnc2N1CCc2ccccc2C1 | inconclusive: 12.6 µM [inhibitor, single point] |  |
| O=C(Nc1nnc(S(=O)(=O)N2CCN(c3ccc(F)cc3)CC2)s1)c1ccc(Cl)cc1 | inactive |  |
| CCCCSCCCNC(=O)CN1C(=O)COc2ccc(S(=O)(=O)N3CCC(C)CC3)cc21 | inconclusive: 3.55 µM [inhibitor, partial curve] |  |
| COCCOC1CCOC2(CCN(C(=O)Cc3cccc(OC)c3)CC2)C1 (stereo not drawn) | inconclusive: 17.8 µM [inhibitor, single point] |  |
| COc1ccccc1-c1cn2c(n1)CO[C@@H](CNC(=O)c1cccnc1)C2 | inactive |  |
| Cc1cccc(C)c1NC(=O)CN1C(=O)NC(c2ccccc2Cl)C2=C1COC2=O (stereo not drawn) | inconclusive: 0.282 µM [inhibitor, full curve, poor fit] |  |
| CN(C)[C@@H]1CN(Cc2ccccn2)CC[C@]1(O)c1ccccc1 | inconclusive: 1.26 µM [inhibitor, single point] |  |
| CCn1cc2nc(SCc3ccc(C)cc3)n(CCc3ccccc3)c(=O)c2n1 | inconclusive: 10 µM [inhibitor, single point] |  |
| Cc1ccc(OCC(=O)Nc2ccc(Cl)c(-c3nc4ccccc4[nH]3)c2)cc1C | inconclusive: 10 µM [inhibitor, single point] |  |
| Cc1cccc(OCC(=O)Nc2ccc(-c3nc4cc(C)ccc4o3)c(O)c2)c1 |  | inconclusive: -66.6% [inhibitor] [at 5.79 µM] |
| c1ccc2c(-c3cn(CC4CNCCO4)nn3)ccnc2c1 (stereo not drawn) | inactive |  |
| Cc1ccc(C2Cn3nnc(-c4noc(CCc5ccccc5)n4)c3CO2)cc1 (stereo not drawn) | inactive |  |
| CC(=O)N1CC2(CCCN(C3CCCCC3)C2)Cc2ccccc21 (stereo not drawn) | inconclusive: 10 µM [inhibitor, partial curve] |  |
| Fc1cc(F)cc(Cc2nc3nccc(-c4ccsc4)n3n2)c1 | inconclusive: 11.2 µM [inhibitor, single point] |  |
| O=C(NC1CC1)[C@@H]1C[C@H](Oc2ccccc2)CN1C(=O)CN1CCCCCC1 | inconclusive: 11.2 µM [inhibitor, single point] |  |
| Cn1cc(C(=O)NCc2ccc(Cl)cc2)c(=O)c2cc(S(=O)(=O)N3CCCCCC3)ccc21 | inconclusive: 12.6 µM [inhibitor, single point] |  |
| COCc1nc(-c2ccc(OC3CN(C(=O)NCc4ccc(OC)cc4)C3)cc2)no1 | inconclusive: 11.2 µM [inhibitor, partial curve, poor fit] |  |
| O=C(Nc1ccc(F)cc1F)C1CN(S(=O)(=O)c2cccnc2)CC12CCCCC2 (stereo not drawn) | inactive |  |
